Values joined by “and” are separate entries in the source; they are usually repeats but may differ in a detail not shown here. Identical values can stand only once. Counter-ions that a name gives are not always drawn. The whole screen tested about 5,800 compounds, of which about 620 (11%) showed activity.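 Rule for the calls: active = score above a cut-off or among the top three wells of a plate; in these data no inactive exceeds 0.85.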 The list shows a part of the results, in another mix than the full data.
Test system: primary human hepatic stellate cells (donor 1)
Test: scaled lipid accumulation score (0 = DMSO-like, 1 = nortriptyline-like); higher = stronger HSC inactivation (lipid re-accumulation), active = hit call of the paper
Conditions: 48 h
[1] = library stock concentration: 3.33 mM
[2] = library stock concentration: 10 mM
[3] = library stock concentration: 6 mM
[4] = library stock concentration: 80 uM
[5] = library stock concentration: 400 uM
[6] = library stock concentration: 2 mM
[7] = library stock concentration: 1 mM
[8] = library stock concentration: 5.4 mM

## O=C(NCCO[N+](=O)[O-])c1cccnc1 [Nicorandil]
  scaled lipid accumulation score: inactive: ≤ 0
[1]
  scaled lipid accumulation score: inactive: ≤ 0
Library stock concentration: 9.5 mM
  scaled lipid accumulation score: inactive: ≤ -0.006
[2]
  scaled lipid accumulation score: inactive: ≤ 0 and inactive: 0.022

## O=C(NCCO[N+](=O)[O-])c1cccnc1
[2]
  scaled lipid accumulation score: inactive: ≤ 0

## CN(C)CCOc1ccc(/C(=C(/CCCl)c2ccccc2)c2ccccc2)cc1 [Toremifene Citrate]
[1]
  scaled lipid accumulation score: inactive: 0.112

## CN(C)CCOc1ccc(/C(=C(/CCCl)c2ccccc2)c2ccccc2)cc1
[2]
  scaled lipid accumulation score: inactive: ≤ 0

## CN(C)CCOc1ccc(/C(=C(/CCCl)c2ccccc2)c2ccccc2)cc1 [Toremifene]
Library stock concentration: 4.9 mM
  scaled lipid accumulation score: inactive: 0.264

## O=C1Nc2ccc(I)cc2C1=Cc1cc(Br)c(O)c(Br)c1
[1]
  scaled lipid accumulation score: inactive: ≤ 0
[2]
  scaled lipid accumulation score: inactive: 0.083

## CCN1CCN(C(=O)N[C@@H](C(=O)N[C@@H]2C(=O)N3C(C(=O)O)=C(CSc4nnnn4C)CS[C@H]23)c2ccc(O)cc2)C(=O)C1=O [Cefoperazone dihydrate]
  scaled lipid accumulation score: inactive: ≤ 0

## CCN1CCN(C(=O)N[C@@H](C(=O)N[C@@H]2C(=O)N3C(C(=O)O)=C(CSc4nnnn4C)CS[C@H]23)c2ccc(O)cc2)C(=O)C1=O [Cefoperazone]
[1]
  scaled lipid accumulation score: inactive: ≤ 0
[2]
  scaled lipid accumulation score: inactive: ≤ 0

## CCN1CCN(C(=O)N[C@@H](C(=O)N[C@@H]2C(=O)N3C(C(=O)O)=C(CSc4nnnn4C)CS[C@H]23)c2ccc(O)cc2)C(=O)C1=O [Cefoperazone sodium]
Library stock concentration: 3 mM
  scaled lipid accumulation score: inactive: ≤ 0
[2]
  scaled lipid accumulation score: inactive: ≤ 0

## CCN1CCN(C(=O)N[C@@H](C(=O)N[C@@H]2C(=O)N3C(C(=O)O)=C(CSc4nnnn4C)CS[C@H]23)c2ccc(O)cc2)C(=O)C1=O [Cefoperazone acid]
Library stock concentration: 3.1 mM
  scaled lipid accumulation score: inactive: ≤ 0

## O=C(c1cn(Cc2cncn2Cc2ccc(Br)cc2)cc1-c1cccc2ccccc12)N1CCOCC1
[1]
  scaled lipid accumulation score: inactive: ≤ -0.003
[2]
  scaled lipid accumulation score: inactive: 0.723

## CO[C@@]12[C@H](COC(N)=O)C3=C(C(=O)C(C)=C(N)C3=O)N1C[C@@H]1N[C@@H]12 [Mitomycin C]
Library stock concentration: 15 mM
  scaled lipid accumulation score: inactive: ≤ -0.012

## CO[C@@]12[C@H](COC(N)=O)C3=C(C(=O)C(C)=C(N)C3=O)N1C[C@@H]1N[C@@H]12 [Mitomycin c]
[3]
  scaled lipid accumulation score: inactive: ≤ -0.006 and inactive: 0.044
[2]
  scaled lipid accumulation score: inactive: 0.129

## CC(C(=O)O)c1ccc(N2Cc3ccccc3C2=O)cc1 (stereo not given) [Indoprofen]
  scaled lipid accumulation score: inactive: ≤ 0
Library stock concentration: 7.1 mM
  scaled lipid accumulation score: inactive: ≤ -0.001
[2]
  scaled lipid accumulation score: inactive: ≤ 0

## Cc1cc(Nc2ncnc3ccc(-c4ccc(CNCCS(C)(=O)=O)o4)cc23)ccc1Oc1ccn2ncnc2c1 [HER2-Inhibitor-1]
[1]
  scaled lipid accumulation score: inactive: 0.203

## CC1=Nc2ccc(Cl)cc2S(=O)(=O)N1
[2]
  scaled lipid accumulation score: inactive: ≤ 0

## CC1=Nc2ccc(Cl)cc2S(=O)(=O)N1 [Diazoxide]
  scaled lipid accumulation score: inactive: ≤ 0
Library stock concentration: 8.7 mM
  scaled lipid accumulation score: inactive: ≤ -0.006 and inactive: ≤ 0
[2]
  scaled lipid accumulation score: inactive: ≤ -0.07 and inactive: 0.029 and inactive: 0.015
Library stock concentration: 21.7 mM
  scaled lipid accumulation score: inactive: ≤ -0.021

## C1CCN2C[C@@H]3C[C@@H](CN4CCCC[C@@H]34)[C@H]2C1 [Sparteine sulfate]
[3]
  scaled lipid accumulation score: inactive: ≤ -0.001
[2]
  scaled lipid accumulation score: inactive: 0.072

## C1CCN2C[C@@H]3C[C@@H](CN4CCCC[C@@H]34)[C@H]2C1 [Sparteine (-)]
  scaled lipid accumulation score: inactive: ≤ 0

## c1cc2c(cc1C1CCCCC1)c1c3n2CCNC3CCC1 (stereo not given) [Tetrindole mesylate]
[2]
  scaled lipid accumulation score: inactive: ≤ 0

## COc1ccccc1S(=O)(=O)Nc1ccc2c(c1)CN(C)C(=O)N2
[4]
  scaled lipid accumulation score: inactive: ≤ 0
[5]
  scaled lipid accumulation score: inactive: ≤ 0
[6]
  scaled lipid accumulation score: inactive: ≤ 0
[1]
  scaled lipid accumulation score: inactive: ≤ 0
[2]
  scaled lipid accumulation score: inactive: 0.299 and inactive: ≤ 0

## CC[C@@H]1C(=O)N(C)c2cnc(Nc3ccc(C(=O)N[C@H]4CC[C@H](N5CCN(CC6CC6)CC5)CC4)cc3OC)nc2N1C(C)C [Volasertib]
[2]
  scaled lipid accumulation score: active: 1.17

## COc1ccc2c(OC)c3ccoc3nc2c1OC [Skimmianine]
  scaled lipid accumulation score: inactive: ≤ 0

## CC1CC(OC(=O)C(O)c2ccccc2)CC(C)(C)N1C (stereo not given) [Eucatropine hydrochloride]
  scaled lipid accumulation score: inactive: ≤ 0
Library stock concentration: 6.1 mM
  scaled lipid accumulation score: inactive: ≤ -0.001
[2]
  scaled lipid accumulation score: inactive: ≤ 0

## CC1=C(C(=O)OC2CCCCC2)C(c2ccc([N+](=O)[O-])cc2)C2=C(CC(C)(C)CC2=O)N1 (stereo not given)
[2]
  scaled lipid accumulation score: active: 0.997

## Cc1nnc(NS(=O)(=O)c2ccc(N)cc2)s1 [Sulfamethizole]
  scaled lipid accumulation score: inactive: ≤ 0
[1]
  scaled lipid accumulation score: inactive: ≤ 0
[2]
  scaled lipid accumulation score: inactive: ≤ 0

## N=C(N)S/C=C\C(=O)O [ZAPA sulphate]
[2]
  scaled lipid accumulation score: inactive: 0.011

## C[C@@H](O)CCC[C@@H](O)/C=C/[C@H]1C(O)CC(O)C1CCCCCCC(=O)O (stereo partly drawn) [15(R),19(R)-hydroxy Prostaglandin F1.alpha.]
[7]
  scaled lipid accumulation score: inactive: ≤ 0

## CN1CCC(=C2c3ccccc3CCc3sccc32)CC1.O=C(O)CC(O)C(=O)O [Pizotifen Malate]
[2]
  scaled lipid accumulation score: active: 1.32

## Cc1c(C(=O)c2ccccc2)c(N)c(-c2ccccc2)n1Cc1ccc(Cl)cc1
[7]
  scaled lipid accumulation score: inactive: ≤ 0

## CCN1CCC[C@H]1CNC(=O)c1c(OC)ccc(Br)c1OC [Remoxipride]
[8]
  scaled lipid accumulation score: inactive: 0.005

## CCN1CCC[C@H]1CNC(=O)c1c(OC)ccc(Br)c1OC [Remoxipride Hydrochloride]
  scaled lipid accumulation score: inactive: ≤ 0

## CCN1CCC[C@H]1CNC(=O)c1c(OC)ccc(Br)c1OC [Remoxipride hydrochloride]
[2]
  scaled lipid accumulation score: inactive: ≤ 0

## COc1cc(NS(C)(=O)=O)ccc1Nc1c2ccccc2nc2ccccc12 [Amsacrine hydrochloride]
[2]
  scaled lipid accumulation score: inactive: 0.365

## FC(F)c1nc2ccccc2n1-c1nc(N2CCOCC2)nc(N2CCOCC2)n1
[4]
  scaled lipid accumulation score: inactive: ≤ 0
[5]
  scaled lipid accumulation score: inactive: ≤ 0
[6]
  scaled lipid accumulation score: inactive: 0.007
[1]
  scaled lipid accumulation score: inactive: ≤ 0
[2]
  scaled lipid accumulation score: inactive: ≤ 0 and inactive: 0.027

## O=C1C2CC3CC1CC(O)(C3)C2
[2]
  scaled lipid accumulation score: inactive: 0.163

## CCN1CCN(c2cc3c(cc2F)c(=O)c(C(=O)O)cn3C2CC2)CC1
[2]
  scaled lipid accumulation score: inactive: ≤ 0

## Cc1cccc(Nc2nc(-c3ccncc3)cs2)c1
[1]
  scaled lipid accumulation score: active: 0.881
[2]
  scaled lipid accumulation score: active: 1.24

## O=C1NC(=O)/C(=C/c2ccc(-c3ccc(F)cc3O)o2)S1
[2]
  scaled lipid accumulation score: active: 1.66

## c1ccc(CN2CCC3(CCc4ccccc43)CC2)cc1 [L-693,403 maleate]
[2]
  scaled lipid accumulation score: inactive: 0.504

## OC1(c2ccc(Cl)c(C(F)(F)F)c2)CCN(CCCC(c2ccc(F)cc2)c2ccc(F)cc2)CC1
[2]
  scaled lipid accumulation score: inactive: 0.219

## OC1(c2ccc(Cl)c(C(F)(F)F)c2)CCN(CCCC(c2ccc(F)cc2)c2ccc(F)cc2)CC1 [Penfluridol]
[1]
  scaled lipid accumulation score: inactive: 0.751
[2]
  scaled lipid accumulation score: inactive: 0.013

## COC(=O)Nc1nc2cc(C(=O)c3cccs3)ccc2[nH]1 [Nocodazole]
  scaled lipid accumulation score: active: 0.883

## O=C(O)COC(=O)Cc1ccccc1Nc1c(Cl)cccc1Cl [Aceclofenac]
  scaled lipid accumulation score: inactive: ≤ 0

## Cc1cnc(NC(=O)C2=C(O)c3ccccc3S(=O)(=O)N2C)s1 [Meloxicam sodium]
[8]
  scaled lipid accumulation score: inactive: ≤ 0
[2]
  scaled lipid accumulation score: inactive: ≤ -0.046

## Cc1cnc(NC(=O)C2=C(O)c3ccccc3S(=O)(=O)N2C)s1 [Meloxicam]
  scaled lipid accumulation score: inactive: ≤ 0
[1]
  scaled lipid accumulation score: inactive: ≤ 0
Library stock concentration: 5.7 mM
  scaled lipid accumulation score: inactive: ≤ -0.006
[2]
  scaled lipid accumulation score: inactive: ≤ 0 and inactive: 0.006

## CC(C)NCC(O)COc1ccc(CC(N)=O)cc1 (racemic) [(RS)-Atenolol]
[2]
  scaled lipid accumulation score: inactive: 0.043

## CC(C)NCC(O)COc1ccc(CC(N)=O)cc1 (racemic) [(?)-Atenolol]
[2]
  scaled lipid accumulation score: inactive: 0.116

## CC(C)NCC(O)COc1ccc(CC(N)=O)cc1 (racemic)
[2]
  scaled lipid accumulation score: inactive: ≤ 0

## CC(C)NCC(O)COc1ccc(CC(N)=O)cc1 (racemic) [Atenolol]
Library stock concentration: 7.5 mM
  scaled lipid accumulation score: inactive: ≤ 0 and inactive: 0.083
[2]
  scaled lipid accumulation score: inactive: ≤ 0

## CCCCC[C@H](O)/C=C/[C@H]1[C@H](O)CC(=O)[C@@H]1C/C=C\CCCC(=O)OC [Prostaglandin E2 methyl ester]
[7]
  scaled lipid accumulation score: inactive: ≤ 0

## O=C(O)CCCc1ccccc1 [sodium 4-Phenylbutyrate]
[2]
  scaled lipid accumulation score: inactive: ≤ -0.001

## O=C(O)CCCc1ccccc1
[2]
  scaled lipid accumulation score: inactive: ≤ 0

## O=C(O)CCCc1ccccc1 [Sodium phenylbutyrate]
Library stock concentration: 10.7 mM
  scaled lipid accumulation score: inactive: 0.049

## O=C(O)CCCc1ccccc1 [Sodium Phenylbutyrate]
[1]
  scaled lipid accumulation score: inactive: ≤ 0
[2]
  scaled lipid accumulation score: inactive: ≤ -0.001

## NC1=NCCN1CC(=O)O [Cyclocreatine]
[2]
  scaled lipid accumulation score: inactive: ≤ 0

## CC1(C)O[C@@H]2C[C@H]3[C@@H]4CCC5=CC(=O)C=C[C@]5(C)[C@@]4(F)[C@@H](O)C[C@]3(C)[C@]2(C(=O)CO)O1 [Triamcinolone acetonide]
[2]
  scaled lipid accumulation score: inactive: ≤ 0

## CC1(C)O[C@@H]2C[C@H]3[C@@H]4CCC5=CC(=O)C=C[C@]5(C)[C@@]4(F)[C@@H](O)C[C@]3(C)[C@]2(C(=O)CO)O1 [Triamcinolone Acetonide]
[1]
  scaled lipid accumulation score: inactive: ≤ 0
[2]
  scaled lipid accumulation score: inactive: ≤ 0

## CC1(C)O[C@@H]2C[C@H]3[C@@H]4CCC5=CC(=O)C=C[C@]5(C)[C@@]4(F)[C@@H](O)C[C@]3(C)[C@]2(C(=O)CO)O1
[2]
  scaled lipid accumulation score: inactive: ≤ 0

## CC(C)(C)C(=O)Nc1ccccc1 [N-Pivaloylaniline]
[7]
  scaled lipid accumulation score: inactive: 0.066

## N=C(N)SCCc1c[nH]cn1 [Imetit dihydrobromide]
[2]
  scaled lipid accumulation score: inactive: ≤ -0.055 and inactive: 0.009

## CN1CCN(CCCN2c3ccccc3Sc3ccc(Cl)cc32)CC1 [Prochlorperazine edisylate]
Library stock concentration: 3.5 mM
  scaled lipid accumulation score: inactive: 0.713
[2]
  scaled lipid accumulation score: inactive: 0.523

## CN1CCN(CCCN2c3ccccc3Sc3ccc(Cl)cc32)CC1 [Prochlorperazine dimaleate]
  scaled lipid accumulation score: inactive: 0.696
[2]
  scaled lipid accumulation score: inactive: 0.815

Source: the supplement of paper PMC9135407
